Experimental data published in PubChem BioAssay AID360 (National Center for Advancing Translational Sciences (NCATS), 2006).
In all, about 48,000 compounds went through this assay and about 550 (1.1%) were called active. The shares of active, inactive and inconclusive entries below differ from those in the screen. Cut-off read from the data, not from the text of the source: active = potency below about 15 µM; inconclusive = mostly about 16 µM to 33 µM; inactive = weaker than that. Potencies beside an inconclusive call are fits to weak or partial responses and may not hold up.

Each compound was assayed against Lysosomal acid glucosylceramidase (Homo sapiens) (UniProt P04062) (assay: Glucocerebrosidase). Conditions: purified enzyme, resorufin glucoside fluorescence (screen aimed at inhibitors), 20 min.
Summary of the method: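 Normal human glucocerebrosidase (0.2 nM final) was assayed with resorufin β-D-glucopyranoside (30 uM final) in 50mM citric acid/KH2PO4, 10mM sodium taurocholate, 0.01% tween-20, pH 5.9. Compounds were titrated; fluorescence (Ex 548, Em 600) read after 20 min at RT.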
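Note: the screen sought inhibitors.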
Potency is the fitted concentration of half-maximal effect.

UniProt P04062, sequence (P04062 whole entry, looked up): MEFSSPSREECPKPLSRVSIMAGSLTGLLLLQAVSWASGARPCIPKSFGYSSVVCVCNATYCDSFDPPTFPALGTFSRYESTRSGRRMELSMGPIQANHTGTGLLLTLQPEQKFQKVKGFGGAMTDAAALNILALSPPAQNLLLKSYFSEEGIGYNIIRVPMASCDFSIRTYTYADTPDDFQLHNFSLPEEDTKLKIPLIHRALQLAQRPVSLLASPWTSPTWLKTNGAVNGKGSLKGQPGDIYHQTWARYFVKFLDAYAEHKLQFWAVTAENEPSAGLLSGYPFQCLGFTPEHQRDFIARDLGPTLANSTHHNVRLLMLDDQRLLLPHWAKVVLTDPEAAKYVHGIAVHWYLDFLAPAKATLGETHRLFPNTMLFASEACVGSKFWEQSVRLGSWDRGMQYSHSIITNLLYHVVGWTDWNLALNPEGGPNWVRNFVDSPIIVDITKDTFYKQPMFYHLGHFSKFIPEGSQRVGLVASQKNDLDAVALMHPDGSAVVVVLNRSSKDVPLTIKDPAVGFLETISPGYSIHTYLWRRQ

Potency, active:
CCOC(=O)CSc1nnc(-c2ccccc2NC(=O)c2ccccc2)o1 8.26 µM
Cc1cccc2cc(CN(Cc3nnnn3Cc3ccco3)C3CCCC3)c3nnnn3c12 9.84 µM
Cc1cc(C2N=C(N)Nc3nc4ccccc4n32)c(C)n1-c1ccccc1Cl (stereo not drawn) 12.7 µM
O=C1OC(Nc2nc3ccccc3s2)c2ccccc21 (stereo not drawn) 15.1 µM
CCN1CCN(c2ccc(NC(=O)c3cccc4ncccc34)cc2)CC1 8.72 µM
COc1ccccc1-c1cc(C(=O)NCc2ccco2)no1 12.5 µM
COc1ccc2oc(=O)c(NC(=O)C3CCCCC3)cc2c1 5.23 µM
COc1ccccc1-c1nc(C#N)c(N2CCN(Cc3ccccc3)CC2)o1 12 µM
Cc1cc(C)c2c(CN3CCN(CCO)CC3)cc(=O)oc2c1 5.45 µM

Potency, inactive:
CCOC(=O)c1cnn2c(C(F)(F)F)cc(-c3ccco3)nc12 > 76.9 µM
Cc1ccc(Cn2nnc3c(=O)n(Cc4cc(C)ccc4C)cnc32)cc1 > 76.9 µM
Cc1ccc2nc(SCC(=O)NCC3CCCO3)c(C#N)cc2c1 (stereo not drawn) > 76.9 µM
CCc1ccccc1Nc1nc(N)nc(COC(=O)c2cccn2C)n1 > 76.9 µM
CCc1ccc(NC(=O)CS(=O)CC(=O)Nc2ccc(F)cc2F)cc1 (stereo not drawn) > 76.9 µM
COc1ccc(CNC(=O)NCc2ccc(OC)c(OC)c2)cc1OC > 76.9 µM
CC(=O)c1ccc(N2C(=O)C3C(C2=O)C(C(=O)c2ccc(Cl)cc2)N2CCCC32)cc1 (stereo not drawn) > 76.9 µM
CCc1nnc(NC(=O)Nc2ccc(OC)cc2)s1 > 76.9 µM
COc1ccc(-c2cc(C(F)(F)F)nc(SCC(=O)NCc3ccco3)n2)cc1OC > 76.9 µM
O=C(NCc1ccco1)c1cc2n(n1)C(C(F)(F)F)CC(c1ccc(Br)cc1)N2 (stereo not drawn) > 76.9 µM
Cc1ccc(C)c2[nH]c(=O)c(C(c3nnnn3C3CCCC3)N3CCOCC3)cc12 (stereo not drawn) > 76.9 µM
Cc1ccc(S(=O)(=O)N2CCOCC2)cc1C(=O)O > 76.9 µM
Cn1c(-c2ccc(Br)o2)nc2ccccc21 > 76.9 µM
Cn1nc(C(=O)Nc2ccc(S(=O)(=O)N3CCCC3)cc2)ccc1=O > 76.9 µM
COc1cc(OC)c(OC)cc1CNC1CCCCCC1 > 76.9 µM
CN1C(=O)N(C)C2CC1N(C)C(=O)N2C > 76.9 µM
O=C(Nc1ccccc1C(=O)Nc1ccccc1C(=O)NCc1ccco1)c1ccco1 > 76.9 µM
Cc1nc(SCC(=O)NCc2ccco2)c2c3c(sc2n1)CCCC3 > 76.9 µM
Cc1occc1-c1nnc(SCC(=O)Nc2ccccc2-c2ccccc2)n1C > 76.9 µM
CC(O)c1nc2ccccc2n1C1CCCCC1 (stereo not drawn) > 76.9 µM
CN1/C(=C\C(=O)c2ccco2)C(C)(C)c2ccccc21 > 76.9 µM
Cn1cc(Br)c(C(=O)NC2CCCCC2)n1 > 76.9 µM
O=C(CCCN1C(=O)c2ccccc2C1=O)Nc1ccc(S(=O)(=O)N2CCOCC2)cc1 > 76.9 µM
COc1ccc(-n2nnc3c(=O)n(Cc4cccc(C)c4)cnc32)cc1 > 76.9 µM

Potency, inconclusive:
CSc1ccc(S(=O)(=O)Nc2ccc(N3CCOCC3)c(Cl)c2)cc1 15.5 µM [decreasing]
CCc1nnc(NC(=O)CN2CCN(c3nc(-c4ccccc4)cs3)CC2)s1 19.4 µM [decreasing]
COc1ccc2nc3c(cc2c1)c(NC(=O)c1cccs1)nn3CC(C)C 18.1 µM [decreasing]
O=c1oc2cc(O)ccc2c2c1CCCC2 19.1 µM [decreasing]
CCc1cc(C(=O)Cc2nc3ccccc3[nH]2)c(O)cc1O 31.8 µM [decreasing]
Cc1ccccc1Cn1cc(S(=O)(=O)CC(=O)Nc2nccs2)c2ccccc21 15.8 µM [decreasing]
c1ccc2[nH]c(SN3CCOCC3)nc2c1 18.1 µM [decreasing]
O=C(Nc1cccnc1)Nc1ccc2c(c1)OCO2 32.4 µM [decreasing]
CC1(C)c2ssc(=S)c2-c2ccccc2N1C(=O)c1ccco1 17.4 µM [decreasing]
O=C(CCCCCn1c(=O)[nH]c2ccccc2c1=O)N1CCN(Cc2ccc3c(c2)OCO3)CC1 16.4 µM [decreasing]
Cc1cc(N2CCCCC2)n2ncc(-c3ccc(Cl)cc3)c2n1 16.4 µM [increasing]
COc1ccccc1CNc1ccc(N2CCCCC2)cc1 17.6 µM [decreasing]
Cc1ccc(-c2noc(CCC(=O)NC3CCN(Cc4ccccc4)CC3)n2)cc1 15.6 µM [decreasing]
Cc1cccc(Nc2n[nH]c(=S)s2)c1C 23 µM [decreasing]
CCN1C2=NCCCN2c2cc(C)c(C)cc21 16.3 µM [decreasing]
CN1C(=O)CSc2ccc(NC(=O)N3CCN(c4ccccn4)CC3)cc21 25.8 µM [decreasing]
COc1ccc(C(F)(F)F)cc1NC(=O)c1nc2nc(C)cc(C(F)F)n2n1 29 µM [decreasing]
COCCn1c(=O)[nH]c2cc(C(=O)OC)ccc2c1=O 26.5 µM [decreasing]
Cc1nc(N2CCN(S(=O)(=O)c3cccc4nonc34)CC2)c2c3c(sc2n1)CCCC3 30.1 µM [decreasing]
COc1ccc(Cl)cc1NC(=O)CN(C(=O)c1ccco1)C1CCCCC1 16.7 µM [decreasing]
COc1ccc(-n2nnnc2SCC(=O)c2ccc(O)c(O)c2)cc1 16.9 µM [decreasing]
Cc1noc(C)c1CSCC(=O)NC1=NCCS1 25.8 µM [decreasing]
CCOC(=O)c1c(NC(C)=O)sc2c(O)cccc12 31.5 µM [increasing]
Cc1cc(C(=O)CN(Cc2ccc(F)cc2)S(=O)(=O)c2ccc3c(c2)OCCO3)c(C)n1C 21.8 µM [decreasing]
CC(=O)c1cc(-c2ccc(F)cc2)n(CCC(=O)Nc2cc(C)[nH]n2)c1C 16 µM [decreasing]
O=C(CSCc1ccco1)c1ccc(Cl)s1 18.5 µM [decreasing]
COc1ccc(OC)c(C(c2nnnn2C2CCCC2)N2CCN(c3ccccc3F)CC2)c1 (stereo not drawn) 17.4 µM [decreasing]
N=c1c2c3c(sc2ncn1CCN1CCOCC1)CCCCC3 16.5 µM [decreasing]
CC(C)CC(C(=O)NCc1ccccn1)N1C(=O)c2ccccc2C1=O (stereo not drawn) 23.4 µM [decreasing]
O=C(c1ccco1)N1CCN(c2ncnc3sc4c(c23)CCC4)CC1 23.5 µM [decreasing]
O=C(c1ccc(COc2ccccc2Cl)o1)N1CCN(Cc2ccc3c(c2)OCO3)CC1 28.2 µM [decreasing]
O=C(Nc1ccc(C(F)(F)F)cc1)C1CCCN1S(=O)(=O)c1cccc2cccnc12 (stereo not drawn) 19.3 µM [decreasing]
CCOC(=O)c1c(NC(C)=O)sc2c(O)c(CN3CCN(CC)CC3)ccc12 16.3 µM [decreasing]
Nc1nc(CN2CCN(Cc3ccccc3)CC2)nc(Nc2ccc3c(c2)OCCO3)n1 23.6 µM [decreasing]
Fc1ccc(-c2cc3nc(-c4ccccc4)cc(N4CCN(CCN5CCOCC5)CC4)n3n2)cc1 33.5 µM [decreasing]
COc1ccc(OC)c(NC(=O)Cn2cc(C#N)c3cc(Br)ccc32)c1 22.1 µM [increasing]
O=S(=O)(NC1CCCC1)c1ccc(S(=O)(=O)N(Cc2cccs2)CC2CCCO2)cc1 (stereo not drawn) 24.3 µM [decreasing]
CC(C)C[C@H](NC(=O)OC(C)(C)C)c1nnc(SCC(=O)Nc2ccc(Br)cc2)o1 21.4 µM [decreasing]
Cc1nnc(NC(=O)CSc2nnc(Cc3cccn3C)n2CCc2ccccc2)s1 20.1 µM [decreasing]
COc1ccc(OC)c(Nc2nc(-c3ccc(O)c(O)c3)cs2)c1 16.3 µM [decreasing]
Cc1ccc(C)c(N2CCN(C(=O)c3ccc(NS(=O)(=O)c4c(C)noc4C)cc3)CC2)c1 17.7 µM [decreasing]
O=S(=O)(Nc1ccc2c(c1)nc1n2CCN(Cc2ccccc2)C1)c1ccc(Cl)cc1 19.3 µM [decreasing]
CCCCCn1c(SCCN2CCOCC2)nc2c1c(=O)[nH]c(=O)n2C 20.2 µM [decreasing]
O=S(=O)(c1ccccc1)N1CCN(c2cc(-c3ccccc3)nc3ncnn23)CC1 21.3 µM [decreasing]
COc1ccc2nc(SCC(=O)N(C)C3CCCCC3)c(C#N)cc2c1 19 µM [decreasing]
